Publication PMC12136788
The other results are listed elsewhere or left out.

T1: UNK ZnF1-3 (human, UniProt Q9C0B0 31-174)
T1 sequence: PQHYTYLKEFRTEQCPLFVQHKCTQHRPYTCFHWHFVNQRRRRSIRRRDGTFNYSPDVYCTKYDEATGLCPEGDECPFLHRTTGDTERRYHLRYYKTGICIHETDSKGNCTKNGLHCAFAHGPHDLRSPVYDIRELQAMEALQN

B1: chrX:141883135:141883136:-_ENSMUSG00000041688_ENSMUST00000112835|mus_mus|FALSE|FALSE (ssRNA)
RNA: GGGAGUUCUACAGUCCGACGAUCCUUGCAUCAAUCUGAUUUCUAACUUAACACAUCUCUAAACGUCUAUCUCCCUUACCUAAUACCCUCCCACCCUUAACUUCCCUAGACCCCUGAAAACUCAUCUUAAUGGUACUAUCUGUACAACAGAGGAUUGAGCAUCA
B2: chr4:40633508:40633509:-_ENSMUSG00000028411_ENSMUST00000129021|mus_mus|FALSE|FALSE (ssRNA)
RNA: GGGAGUUCUACAGUCCGACGAUCGAAGAAGUGUACGCUUUAGUUCAGGAUUGAACGGAGCAUAGGCAAUGCGGACAGAUGCUAGCACUGCCCUUGGUCGCCGAGACGAGUGUCACCCGCCCCAGUGCUUCCUGAGGUGCUCUUCAACAGAGGAUUGAGCAUCA
B3: 114973512_114976336_1086_CDS_ENSG00000197323_ENST00000358465|human|control|control (ssRNA)
RNA: GGGAGUUCUACAGUCCGACGAUCAGUCUCAUUUACUUCUUUUAUCCUAUUCUGCACCUGAGUAGCUGCAAAAUGAACAUAAUUCUUCUUCUCAAGAAGUUUCGCCAGUAGAUUCUCAAUUGCACCCUUCUGAUUUUGAAAAGCCAACAGAGGAUUGAGCAUCA
B4: 33700149_33700269_704_3pUTR_ENSMUSG00000027677_ENSMUST00000099153|mouse|control|control (ssRNA)
RNA: GGGAGUUCUACAGUCCGACGAUCAAACAGAUCAACACCAUGAAAAAACCAAACUCCCGAAUAGAGCUAAUUCUUCCAAUCACUAUAUCACCACGUUCAAUAUCUCGGAAGAAGAGCUCUCUCCGGUCCAUGCUUGGCAUCUCCCAACAGAGGAUUGAGCAUCA
B5: chr1:163112212:163112213:-_ENSG00000143248_ENST00000313961|hu_hu|hu_hu_hu_mus_False|18_18 (ssRNA)
RNA: GGGAGUUCUACAGUCCGACGAUCUUUUAUUAUCAGUAAGAGUGAGUUACAUACUAGGCAAAGUAUUGGAUACAAUAAUCAGGAAACAAACACUAUUGGUCCAGAAUUUAAAACUUUUGGGAUAAAUUGCUGGCACAGGACUUACAACAGAGGAUUGAGCAUCA
B6: 79510595_79510715_177_CDS_ENSG00000171033_ENST00000352966|human|control|control (ssRNA)
RNA: GGGAGUUCUACAGUCCGACGAUCACUUGCAGAGGAAACCAGGAUAUCAUGUAUUGCAUUUCUUCUACCUGUUCUUCCUGAAGCAAUAAAAUCUGCAUAUGUAGUUUCCACAUCAGUCAUUGCUACCAAAUAUCCACAUAGCAGCAACAGAGGAUUGAGCAUCA
B7: chr5:128448638:128448639:+_ENSG00000066583_ENST00000173527|hu_mus|hu_hu_hu_mus_False|48_68 (ssRNA)
RNA: GGGAGUUCUACAGUCCGACGAUCGGCACUCGCCUUAAUUAGGUUCUGAAUUUCCUUGAACUUCGGGUGGUCCUUAUCAGCCACCAGCUGAAGCAGAACAGCCUCACUAGUGGUCACGAUGAUCCCAGUGCGGGCAAGACGCUCCAACAGAGGAUUGAGCAUCA
B8: chr4:53728692:53728693:+_ENSG00000128045_ENST00000248706|hu_hu|FALSE|FALSE (ssRNA)
RNA: GGGAGUUCUACAGUCCGACGAUCACAGCAGUCGGAGGCCGCGGCGUUGCCCGGCGCGGGGUACUCGGCGAUGGUGCACAUGUUCUGAAUGAGGCGCAUCGCCUCGGCUGCGGCGCACCGCGCGGGAAGGGACUGAGGGACUGGCAACAGAGGAUUGAGCAUCA
B9: chr1:163116108:163116109:-_ENSG00000143248_ENST00000313961|hu_hu|motif|central (ssRNA)
RNA: GGGAGUUCUACAGUCCGACGAUCGUACCUUAAAAGUGUCUCACCUAGAAGGCCUCUACCUGUAAUCACAUUAAUUUUUCGGAAGACAAUUUGGUGUUUUGAAGAUAAAUGUCAUUAGUCUAUGAUAAUAGCAUCAUAGGACAACAACAGAGGAUUGAGCAUCA
B10: chr8:47717725:47717726:+_ENSMUSG00000031628_ENSMUST00000093517|mus_mus|motif|central (ssRNA)
RNA: GGGAGUUCUACAGUCCGACGAUCGAAGUUCUUAUUAUUAAUUAUUAUGCAUAUGCCCAUUUCAGGAUAAUCCAUUUUGUAACGGCUGUCCAGAUAGAUCCCAGAGUCCACUGACUUGCUCCCAUGUAUGGUCUUUACUUCAAACAACAGAGGAUUGAGCAUCA
B11: 72621507_72622045_3609_CDS_ENSMUSG00000002341_ENSMUST00000002412|mouse|control|control (ssRNA)
RNA: GGGAGUUCUACAGUCCGACGAUCUGCUGGAGGGGGACCACACAGCACUGUACCCUUCUUGCAGACAUAGGGUAGGUUGUAGUUGCAGGGGACAUCAUUCCAGCGCCCACUCUCAUGUGCCACCAUCACCACACAAUCCUCCCCCAACAGAGGAUUGAGCAUCA
B12: 118491051_118492415_1553_CDS_ENSG00000065183_ENST00000349139|human|control|control (ssRNA)
RNA: GGGAGUUCUACAGUCCGACGAUCGAAUUUGACAGAUUUAUCUGCACCACCUGUCACAAAGCCACGCUGAUCUGGAGAGAGGGACAUGGACCACAAAGCUCCAUCAUGUGCAUCUAUUGUCUCCAGCAGAUUCCCUGAAGCCAACAACAGAGGAUUGAGCAUCA
B13: chr3:105770834:105770835:+_ENSMUSG00000000561_ENSMUST00000010278|mus_mus|FALSE|FALSE (ssRNA)
RNA: GGGAGUUCUACAGUCCGACGAUCACAGGAAAACACUCAUCUCUCACACACAACACCAAGGAAGGAAAGGGUGAACAAGAGCUACACUGCAGGGCCAAAUUUAUUCACCCAGAAAAUGGAUUUGACUCAGUAUAACAGGGACUUCAACAGAGGAUUGAGCAUCA
B14: chr4:47850210:47850211:-_ENSG00000170448_ENST00000381538|hu_mus|FALSE|FALSE (ssRNA)
RNA: GGGAGUUCUACAGUCCGACGAUCUAUGUCAGGAGAUUUAAAGGAUCAUUAAUCCACACCAUGGAAGAUGUACCACAUAAGCACUGCCACCACAACUGCACACACGGGAAGGAGGUAGGACUUAUACUUCUGCCAAGGCGAGAGCAACAGAGGAUUGAGCAUCA
B15: chr4:76721835:76721836:+_ENSG00000138768_ENST00000264904|hu_mus|hu_hu_hu_mus_True|8_8 (ssRNA)
RNA: GGGAGUUCUACAGUCCGACGAUCGUUUGGCUGGGGUUUCUGAGACGCUCUGGAAUAUAACUCAUGUUUGCUAAUAAAUCCUAGUUUCUCUAUGAAAUUCUCUUUGCCAAUCCUCUUCUCUAUUAGUGUUUUAGCUUUCUCUUUCAACAGAGGAUUGAGCAUCA
B16: chr8:74858975:74858976:-_ENSG00000154582_ENST00000284811|hu_mus|hu_hu_hu_mus_True|68_68 (ssRNA)
RNA: GGGAGUUCUACAGUCCGACGAUCGACCUUGUAGGUAAAAUACAUGCACACUUUUGAUAGCACAUGUGAAGGUAUCUCUCUAAAAUUGACCUCGUUGGUUUCAUUCUCAGCAAACUGACCUGGACCACUCAACAUAGCCUUUAUCAACAGAGGAUUGAGCAUCA
B17: 47484838_47484958_827_CDS_ENSMUSG00000039740_ENSMUST00000044148|mouse|control|control (ssRNA)
RNA: GGGAGUUCUACAGUCCGACGAUCGUGCUCCACGUUCUCCGGGAUCCUAUCGUCAUAACCACCGGCCAUGAAGAGAUGAACCUUAUCCCACUCUUGAGAUGGUAACCGAUUCCGAAGCUGCACCAAGGAUCUCAGUGCCAAGGGCAACAGAGGAUUGAGCAUCA
B18: chr3:105482444:105482445:-_ENSMUSG00000027905_ENSMUST00000090680|mus_mus|FALSE|FALSE (ssRNA)
RNA: GGGAGUUCUACAGUCCGACGAUCUUUCACAGGAAGCUUUGGUUUGCUGUGCUUUGGCCUGGCUGACAGUGCAGAUGCAGAAGUAUUUCUAGGGGAAGGCGUUUGGUUCCCAGGCGUUCUUUGAGACUGGAAGGCUCUCUCUAGCAACAGAGGAUUGAGCAUCA
B19: chr9:15453159:15453160:+_ENSG00000164975_ENST00000490969|hu_mus|FALSE|FALSE (ssRNA)
RNA: GGGAGUUCUACAGUCCGACGAUCAUGGUGCACAAGCCUUAUGUCUGUGAUGACAACAACAUGCUCACAGUCUCCCUGGUGACAGUAUAAGUAAGGAAAGCCAAGUUUAAUAUGCAAGUCAUUAAAUGUGAAAUCUUCCAUUCUCAACAGAGGAUUGAGCAUCA
B20: chr1:244855233:244855234:+_ENSG00000121644_ENST00000302550|hu_mus|hu_hu_hu_mus_True|28_108 (ssRNA)
RNA: GGGAGUUCUACAGUCCGACGAUCCAUUAAAUGAUAAGCGUUGCCCUUAUACUCUUUCCCCAGUUCUUCUACAAUUUUCUCUAUAUCAUCUUCUAGAAAGUCCGUACUCCCUAAAACAACAGCUUCUUUAAAUUUAAAUGUUUCCAACAGAGGAUUGAGCAUCA
B21: chr11:4127340:4127341:+_ENSG00000167325_ENST00000300738|hu_mus|hu_hu_hu_mus_False|58_98 (ssRNA)
RNA: GGGAGUUCUACAGUCCGACGAUCGGCAUAGUCAGGGUGCUUAGUAGUCAAGGUCGCGGCUGUCUCAGCAGCCAGGGUAUCUAGUUCCACUGUGGUGACCCCACUAUAUAGGCCUUGGAUUACUUUCAUGGUGAUCUGAGCAGGCAACAGAGGAUUGAGCAUCA
B22: chr19:15271381:15271382:-_ENSG00000074181_ENST00000263388|hu_mus|FALSE|FALSE (ssRNA)
RNA: GGGAGUUCUACAGUCCGACGAUCUACAAGACAGAGAGGUGCAGGAAGGCUGGGACAGAGAGAAAGGGAUGAGAGUAAGAUUAAAAAGGAGGAAGAAAGAAGUCAUAGAGGAGUGUCACUUCAGCACCCCUCAAAUCCAAGAACCAACAGAGGAUUGAGCAUCA

The binders below were run against T1, UNK ZnF1-3 (assay: nsRBNS (natural sequence RNA bind-n-seq); RBNS binding buffer (assumed for nsRBNS): 25 mM Tris pH 7.5, 150 mM KCl, 3 mM MgCl2, 0.01% Triton X-100, 500 ug/ml BSA, 20 U/ml SUPERase-In, 4 C; UNK is unkempt and MSI1 is Musashi-1; names of the RNAs are library labels; protein concentration not given here; high values mean tight binding).
Work on B1 yielded a binding signal of 2.03 enrichment R. Binder B2 has a binding signal of 0.571 enrichment R. B3 showed a binding signal of 0.695 enrichment R. For B4, the binding signal was 0.442 enrichment R. B5 was tested, and the binding signal was 1.29 enrichment R. Binder B6 has a binding signal of 0.891 enrichment R. In the case of B7, the binding signal is reported as 0.618 enrichment R. In the case of B8, the binding signal is reported as 0.962 enrichment R. Work on B9 yielded a binding signal of 1.41 enrichment R. With B10 the binding signal was 1.15 enrichment R. B11 gave a binding signal of 1.15 enrichment R. Binder B12 has a binding signal of 1.32 enrichment R. For B13, the binding signal was 1.73 enrichment R. With B14 the binding signal was 0.937 enrichment R. B15 gave a binding signal of 0.532 enrichment R. Work on B16 yielded a binding signal of 0.796 enrichment R. B17 was tested, and the binding signal was 0.96 enrichment R. B18 gave a binding signal of 0.868 enrichment R. In the case of B19, the binding signal is reported as 1.08 enrichment R. In the case of B20, the binding signal is reported as 1.43 enrichment R. Binder B21 has a binding signal of 0.766 enrichment R. B22 showed a binding signal of 2.78 enrichment R.
